PubChem BioAssay AID1347165 (National Center for Advancing Translational Sciences (NCATS), 2019)
About 5,700 (2.6%) of roughly 220,000 compounds were called active. Inconclusive means that the source gave no clear call. Such entries were picked first, then a sample of the others. Calls come from the whole dose curve; as a rule, active = well fitted inhibition curve with a large enough effect; inconclusive = small, poorly fitted or top-dose-only effect; inactive = no such curve, though single readings can be large or run the other way. Potencies beside an inconclusive call are fits to weak or partial responses and may not hold up.
Note: nearly all actives have a fitted effect of over 70% in size.
Potency is the fitted concentration of half-maximal effect; tags give direction and shape of the fitted curve.
Throughout, for activity change, negative = inhibition: 0% is about no effect.

The molecules below were run against Lysine-specific demethylase 5B (Homo sapiens) (UniProt Q9UGL1) (assay: Primary screen for KDM5B Histone Demethylases FDH-coupled qHTS). Settings: FDH-coupled NADH fluorescence (FDH is formaldehyde dehydrogenase); activity change, negative = inhibition: at 57.7 µM (top of the series) unless noted.
UniProt Q9UGL1, sequence (Q9UGL1 whole entry, looked up): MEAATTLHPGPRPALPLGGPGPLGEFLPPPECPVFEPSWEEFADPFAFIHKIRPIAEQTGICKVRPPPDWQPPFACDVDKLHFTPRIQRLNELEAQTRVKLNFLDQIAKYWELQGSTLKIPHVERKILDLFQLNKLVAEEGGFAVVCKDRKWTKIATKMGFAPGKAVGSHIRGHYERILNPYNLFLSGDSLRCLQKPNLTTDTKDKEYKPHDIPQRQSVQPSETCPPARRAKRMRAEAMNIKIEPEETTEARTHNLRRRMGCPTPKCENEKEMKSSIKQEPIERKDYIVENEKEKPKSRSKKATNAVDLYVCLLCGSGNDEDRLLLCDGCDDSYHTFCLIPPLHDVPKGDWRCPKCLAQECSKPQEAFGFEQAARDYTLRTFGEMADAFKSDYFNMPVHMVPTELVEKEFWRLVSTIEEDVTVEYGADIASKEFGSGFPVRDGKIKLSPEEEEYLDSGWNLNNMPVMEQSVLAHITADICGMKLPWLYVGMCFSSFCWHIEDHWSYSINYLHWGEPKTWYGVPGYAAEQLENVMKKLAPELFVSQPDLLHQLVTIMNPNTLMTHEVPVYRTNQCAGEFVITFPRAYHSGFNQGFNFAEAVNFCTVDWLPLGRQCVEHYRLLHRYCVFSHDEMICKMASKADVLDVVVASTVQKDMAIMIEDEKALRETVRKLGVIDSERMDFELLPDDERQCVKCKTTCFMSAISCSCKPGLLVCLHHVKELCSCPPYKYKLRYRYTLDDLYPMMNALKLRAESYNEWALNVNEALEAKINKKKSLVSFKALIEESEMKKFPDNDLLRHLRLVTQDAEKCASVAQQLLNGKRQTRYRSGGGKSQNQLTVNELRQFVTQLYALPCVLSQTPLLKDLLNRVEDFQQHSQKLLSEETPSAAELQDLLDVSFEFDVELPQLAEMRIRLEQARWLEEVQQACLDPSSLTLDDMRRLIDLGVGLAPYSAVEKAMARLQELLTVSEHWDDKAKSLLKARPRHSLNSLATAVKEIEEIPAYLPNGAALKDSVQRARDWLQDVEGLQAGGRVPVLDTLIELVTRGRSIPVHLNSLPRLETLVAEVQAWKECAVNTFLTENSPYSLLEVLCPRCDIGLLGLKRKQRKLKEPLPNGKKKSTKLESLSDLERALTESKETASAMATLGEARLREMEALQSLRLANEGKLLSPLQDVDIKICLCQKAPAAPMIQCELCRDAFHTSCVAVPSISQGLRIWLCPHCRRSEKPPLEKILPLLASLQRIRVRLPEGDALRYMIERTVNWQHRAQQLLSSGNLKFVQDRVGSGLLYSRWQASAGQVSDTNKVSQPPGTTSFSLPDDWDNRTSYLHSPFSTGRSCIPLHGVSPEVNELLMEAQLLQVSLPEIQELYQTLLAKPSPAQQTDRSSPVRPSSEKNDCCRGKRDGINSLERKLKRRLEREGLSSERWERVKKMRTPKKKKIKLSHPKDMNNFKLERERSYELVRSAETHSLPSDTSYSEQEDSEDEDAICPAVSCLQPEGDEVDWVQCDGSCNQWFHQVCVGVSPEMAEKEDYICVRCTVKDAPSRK
Outline: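 Compound dilutions met 200 nM (final) KDM5BΔAP for 10 min at room temperature before substrate addition. The substrate mix held 12.5 µM H3K4me3 with cofactors 25 µM α-ketoglutarate and 50 µM Fe²⁺. NADH signal gain over 30 min defined activity.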
In the case of `CCCN1C(=O)Cc2ccccc2C1C(=O)NCc1ccc(Br)cc1` (configuration not stated), the Potency is reported as inconclusive: 8.91 µM [inhibitor, partial curve, poor fit].
With `Cc1oc(-c2nc(C#N)c(NCc3cccnc3)o2)cc1S(=O)(=O)N1CCCCC1` the Potency was inconclusive: 2 µM [inhibitor, full curve, poor fit].
`CCOc1ccc(NC(=O)CCc2nc3cccnc3n2-c2ccccc2)cc1` was tested, and the Potency was inconclusive: 25.1 µM [inhibitor, single point].
For `CC(C)CNC(=O)c1coc(COc2ccc3c(c2)C(c2ccccc2)N(C(=O)C(C)C)CC3)n1` (configuration not stated), the Potency was inconclusive: 25.1 µM [inhibitor, single point].
`COC[C@@H]1[C@H](C(=O)N2CCN(c3ccccn3)CC2)CCC(=O)N1C` was tested, and the Potency was inconclusive: 28.2 µM [inhibitor, partial curve, poor fit].
`CC(C)(Oc1nn(CC2CCOCC2)c2ccccc12)C(=O)NCc1ccccc1` was tested, and the Potency was inconclusive: 35.5 µM [inhibitor, single point].
With `O=C(NCCCn1ccnc1)c1cnc2c(c1)N(C(=O)CCc1ccccc1)CCC2` the “activity change, negative = inhibition” value was inactive: 28.7% [at 86.2 µM].
`O=C([C@H]1CCCN1)N1CCC2(CC1)Nc1ccccc1NC2=O` was tested, and the Potency was inconclusive: 15.8 µM [inhibitor, partial curve, poor fit].
With `Cc1ccc(NC(=O)CSc2nnc(Cc3ccccc3)n2-n2cccc2)c(C)c1` the “activity change, negative = inhibition” value was inactive: 1.54%.
In the case of `Cc1ccc(C)c(N2CCN(C(=O)CCNS(=O)(=O)c3ccc4c(c3)CCN4C(=O)C3CC3)CC2)c1`, the activity change, negative = inhibition is reported as inconclusive: -42.5% [inhibitor].
With `O=C(Nc1ccc(C2(C(=O)N3CCN(c4ccccn4)CC3)CCC2)cc1)C1CC1` the Potency was active: 17.8 µM.
In the case of `CC(C)CNC(=O)N1C[C@@H](Oc2cccnc2)C[C@H]1C(=O)N1CCOCC1`, the “activity change, negative = inhibition” value is reported as inactive: -18.3%.
With `C=CCN(CC=C)Cc1nnc2cc(-c3nc(-c4ccccc4)no3)ccn12` the Potency was active: 25.1 µM.
With `COc1ccc(NC(=O)CC2CCCCN(C)C2=O)c(OC)c1` (configuration not stated) the Potency was inconclusive: 14.1 µM [inhibitor, partial curve].
For `O=C(NCc1ccccc1Cl)c1cnc(N2CCOCC2)c2ccccc12`, the Potency was inconclusive: 28.2 µM [inhibitor, single point].
For `Cc1cccc(C(=O)Nc2ccc3oc(=O)ccc3c2)c1`, the Potency was inconclusive: 28.2 µM [inhibitor, single point].
With `O=C(Nc1cccc(C(F)(F)F)c1)c1cc(S(=O)(=O)N2CCCC2)c[nH]1` the Potency was inconclusive: 0.794 µM [inhibitor, partial curve, poor fit].
`COc1ccc(C(=O)NCc2nnc3ccc(-c4ccc(C)cc4)nn23)cc1F` was tested, and the Potency was active: 28.2 µM.
For `CCOc1ccccc1Oc1coc2cc(O)ccc2c1=O`, the Potency was inconclusive: 25.1 µM [inhibitor, partial curve, poor fit].
`CC(NC(=O)c1cc(-c2ccncc2)cn1C)c1ccc(F)cc1` (configuration not stated) was tested, and the Potency was inconclusive: 22.4 µM [inhibitor, single point].
`O=C(CCc1cn2ccccc2n1)N[C@H]1[C@@H]2CCO[C@@H]2[C@@H]1C1CCCC1` was tested, and the Potency was active: 28.2 µM.
With `COc1ncccc1-c1cc(C(=O)N2CCOCC2)c2c(c1)ncn2C` the “activity change, negative = inhibition” value was inactive: -9.71% [at 86.2 µM].
`O=C(NCc1nnc2ccc(-c3ccc(Cl)cc3)nn12)c1cccc(Br)c1` was tested, and the Potency was active: 28.2 µM.
For `O=C(CSc1ncc(CO)n1Cc1ccc(F)cc1)NCc1ccc2c(c1)OCO2`, the “activity change, negative = inhibition” value was inactive: 13.1%.
With `Cc1ccc(-c2nc(C(=O)NCc3ccc(F)cc3)no2)cc1` the “activity change, negative = inhibition” value was inactive: 4.85%.
`CCC1(O)CCC12CCN(C(=O)CCc1nc3ccccc3s1)CC2` (configuration not stated) was tested, and the “activity change, negative = inhibition” value was inactive: 21.9%.
With `O=C(CN1CCCN(S(=O)(=O)c2ccc(Br)cc2)CC1)Nc1cccc(C(F)(F)F)c1` the Potency was inconclusive: 35.5 µM [inhibitor, single point].
In the case of `CCN(CC)c1ncc(C=O)s1`, the “activity change, negative = inhibition” value is reported as inactive: 5.6%.
With `O=C(CSc1oc(-c2ccccc2)nc1S(=O)(=O)c1ccc(Cl)cc1)NC1CCCCC1` the Potency was inconclusive: 25.1 µM [inhibitor, partial curve, poor fit].
`O=C(N[C@@H]1C[C@H](Cn2cc(C3CC3)nn2)[C@@H](O)[C@H]1O)C1CCOCC1` was tested, and the Potency was inconclusive: 31.6 µM [inhibitor, partial curve, poor fit].
For `CC(C)COC(=O)Cn1nnc2sc(-c3ccccc3)cc2c1=O`, the Potency was inconclusive: 25.1 µM [inhibitor, partial curve, poor fit].
For `C[C@@H](NC(=O)C1=C[C@@H](NC(=O)NC2CCCCC2)[C@@H](O)[C@H](O)C1)C(N)=O`, the Potency was inconclusive: 25.1 µM [inhibitor, partial curve, poor fit].
With `CC(Sc1nnnn1Cc1ccccc1)C(=O)c1cccc(Cl)c1` (configuration not stated) the “activity change, negative = inhibition” value was inactive: 10.4%.
With `Cc1ccccc1Cn1cc(-c2ccncc2)cc1C(=O)NCc1ccncc1` the Potency was inconclusive: 35.5 µM [inhibitor, partial curve, poor fit].
With `Cn1ccc(NC(=O)c2ccc3c(c2)C2(CCN(CC4CC4)C2)CN3Cc2ccccc2)n1` (configuration not stated) the Potency was inconclusive: 15.8 µM [inhibitor, partial curve, poor fit].
In the case of `Cc1ccc(NC(=O)NC(=O)CN2CCN(c3ccc(O)cc3)CC2)c(C)c1`, the Potency is reported as inconclusive: 28.2 µM [inhibitor, partial curve, poor fit].
For `CC(C)CNc1oc(/C=C/c2cccs2)nc1C#N`, the Potency was inconclusive: 25.1 µM [inhibitor, partial curve, poor fit].
For `CCOC(=O)C1=C(C)N=C2SC=C(CC(=O)Nc3ccc(C)c(C)c3)N2C1c1cccc(OC)c1` (configuration not stated), the Potency was inconclusive: 28.2 µM [inhibitor, partial curve].
In the case of `O=C(c1ccc(C(F)(F)F)cc1)N1CCCN(C2CC2)CC1`, the “activity change, negative = inhibition” value is reported as inactive: 8.05%.
`COc1ccc(N(CC(=O)Nc2ccccc2C(=O)NCC2CCCO2)S(C)(=O)=O)cc1OC` (configuration not stated) was tested, and the Potency was inconclusive: 39.8 µM [inhibitor, single point].
For `CSc1ccc(-c2nc(CN(C)Cc3cc(C)no3)c(C)o2)cc1`, the Potency was inconclusive: 39.8 µM [inhibitor, single point].
`CN(Cc1ccccc1)c1nc2c(c(=O)n(C)c(=O)n2C)n1Cc1c(Cl)cccc1Cl` was tested, and the “activity change, negative = inhibition” value was inactive: 6.65%.
